Paper PMC6451091
The list shows a part of the results. For some assays here: At the low end of the ranking the order means little. For some assays here: Measured with an extract: partners may take part in the binding.

Legend:
Conditions in all cases: 20 mM HEPES pH 7.9, 100 mM NaCl, 1 mM DTT, 0.2 mg/mL BSA, 0.02% Triton X-100, 2% milk, 0.4 mg/mL salmon testes DNA; 1 h; temperature not stated; high values mean tight binding; double strand, one strand shown; sequences stand for … in GCCTAGCAC…GTGCTAGGTCTTGATTCGCTTGACGCTGCTG
[1] = target: PU.1 (IVT) (UniProt P17947); assay: protein-binding microarray (PBM)
[2] = target: PU.1 (endogenous, THP-1 nuclear extract) (UniProt P17947); assay: nuclear extract protein-binding microarray (nextPBM)
[3] = target: T1, FLI1 (endogenous, THP-1 nuclear extract) (UniProt Q01543); assay: as above
T1 sequence: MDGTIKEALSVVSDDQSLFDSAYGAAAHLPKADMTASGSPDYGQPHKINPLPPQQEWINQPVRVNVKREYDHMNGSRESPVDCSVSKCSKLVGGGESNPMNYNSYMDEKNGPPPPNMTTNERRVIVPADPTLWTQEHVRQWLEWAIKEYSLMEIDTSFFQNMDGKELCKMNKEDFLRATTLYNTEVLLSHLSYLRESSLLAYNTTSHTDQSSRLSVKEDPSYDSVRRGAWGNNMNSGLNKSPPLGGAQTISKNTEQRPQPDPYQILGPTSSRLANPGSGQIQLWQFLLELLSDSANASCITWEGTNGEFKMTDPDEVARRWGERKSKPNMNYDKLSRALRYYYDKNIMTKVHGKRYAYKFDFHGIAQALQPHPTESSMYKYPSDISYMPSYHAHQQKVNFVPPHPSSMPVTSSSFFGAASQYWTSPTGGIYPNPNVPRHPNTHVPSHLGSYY

[4] = system: PU.1 (endogenous, THP-1 nuclear extract) + IRF8 (endogenous, THP-1 nuclear extract); assay: as above

Sequence | binding signal [1] [z-score] | binding signal [2] [z-score] | binding signal [3] [z-score] | binding signal [4] [z-score]
GATATCCCAACTCAGAGGTC | -0.579 | -0.41 | -0.195 | -0.142
GTAATCCTAGCACTTTTTGG | -0.0126 | -0.834 | -0.934 | -1.82
GCAATACTTTACACTCAACT | -0.266 | -0.331 | -0.166 | -1.62
CCACGGCGCCCTGCCTAGTT | -0.754 | -0.178 | -0.786 | 1.91
ATAACACATGTAGAGGAATA | 0.508 | 0.428 | 0.0975 | 1.85
GAGGATGTGATAAACCTTTG | -0.155 | -0.00648 | 1.03 | -1.16
TTCCGGACCCTGCATTTCAC | 2.18 | 2.85 | 7.45 | -0.413
AGAGAGTATCTCACCCTGTT | -0.428 | -0.292 | -0.473 | 0.532
AAGAGAAGAAACAGCAGAAT | -0.219 | -0.143 | -1.12 | -0.186
GATCCGTCAAAATGGGCCTC | -0.456 | -0.522 | -0.402 | -0.594
CAACAGCGTGCAGTCTTTTT | -0.652 | -0.364 | -0.499 | -0.432
TTATCAGAAGCCAGTGTGGT | -0.586 | -0.483 | -0.12 | 0.961
GACCTACCTGGTTGCTGGGG | -0.448 | 0.00845 | -0.246 | 0.734
GCTCGCTCTCTCCGGGCGTT | -0.375 | -0.289 | -0.593 | 0.435
